The campaign covered roughly 310,000 compounds. About 2,200 (0.71%) showed an effect of 50% or more. The effect is printed as a negative number. This is one part of the list.
The molecules below were run against human ether-à-go-go-related gene (hERG) potassium channel (human, UniProt Q12809) (assay: primary screen, population patch clamp on CHO cells stably expressing hERG).
Sequence of human ether-à-go-go-related gene (hERG) potassium channel (Q12809 whole entry, looked up): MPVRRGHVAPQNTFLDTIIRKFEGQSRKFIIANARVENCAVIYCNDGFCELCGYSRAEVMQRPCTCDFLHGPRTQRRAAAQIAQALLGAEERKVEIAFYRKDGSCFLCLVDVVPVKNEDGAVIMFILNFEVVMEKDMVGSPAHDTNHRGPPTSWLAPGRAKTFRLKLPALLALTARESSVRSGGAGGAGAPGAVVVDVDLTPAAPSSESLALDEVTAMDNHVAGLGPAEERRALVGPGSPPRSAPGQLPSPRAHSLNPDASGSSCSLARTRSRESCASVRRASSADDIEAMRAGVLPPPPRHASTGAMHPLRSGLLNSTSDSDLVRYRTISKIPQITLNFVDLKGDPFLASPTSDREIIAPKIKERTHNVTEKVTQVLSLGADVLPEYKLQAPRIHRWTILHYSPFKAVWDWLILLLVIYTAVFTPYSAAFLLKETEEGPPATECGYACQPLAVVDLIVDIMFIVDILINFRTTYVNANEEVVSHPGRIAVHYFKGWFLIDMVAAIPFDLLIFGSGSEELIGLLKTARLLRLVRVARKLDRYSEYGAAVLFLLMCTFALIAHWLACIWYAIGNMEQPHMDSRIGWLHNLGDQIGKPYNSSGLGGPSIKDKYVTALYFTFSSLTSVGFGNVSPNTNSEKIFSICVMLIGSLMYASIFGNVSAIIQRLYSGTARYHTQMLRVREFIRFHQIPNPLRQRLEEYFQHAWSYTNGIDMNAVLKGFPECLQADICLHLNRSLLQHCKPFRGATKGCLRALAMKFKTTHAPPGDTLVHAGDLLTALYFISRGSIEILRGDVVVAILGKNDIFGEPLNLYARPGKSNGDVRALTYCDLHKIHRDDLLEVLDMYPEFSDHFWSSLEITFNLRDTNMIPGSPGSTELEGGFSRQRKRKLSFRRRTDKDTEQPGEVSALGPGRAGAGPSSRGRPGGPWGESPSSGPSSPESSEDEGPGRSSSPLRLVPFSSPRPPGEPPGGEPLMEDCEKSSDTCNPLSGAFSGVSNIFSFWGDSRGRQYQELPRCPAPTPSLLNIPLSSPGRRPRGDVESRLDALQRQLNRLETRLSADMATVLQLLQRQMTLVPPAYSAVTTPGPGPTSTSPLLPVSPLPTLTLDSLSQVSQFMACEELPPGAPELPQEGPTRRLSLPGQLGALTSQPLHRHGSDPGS

SMILES	hERG current change (%, negative = inhibition) at 1uM
COc1ccccc1-n1c(SCC(=O)Nc2cccc(C(=O)O)c2)nnc1-c1ccccc1O	8.32%
CCN(CC)C(=O)CSc1nnc(-c2ccccc2)o1	11.1%
Cl.NCCCCCc1nnc(SCc2cccc(Cl)c2)o1	0.918%
COc1ccc(NC(=S)N2CCN(C(=O)c3ccco3)CC2)c(OC)c1	8.24%
CC1Cc2ccccc2N1C(=O)CNc1cccc(S(=O)(=O)N2CCCC2)c1 (centres unmarked)	14.1%
O=C(NCc1ccccc1)C12CC3CC(CC(Cl)(C3)C1)C2	7.85%
c1ccc(-c2nc(-c3ccco3)cs2)nc1	3.45%
CC(C)=CC(=O)Nc1c(C)cc(C)cc1Cl	13.2%
O=C(COc1ccc(-c2ccccc2)cc1)N1CCCC1	-1.68%
Cc1ccc(S(=O)(=O)N2CCOCC2)cc1NC(=O)COC(=O)CNC(=O)c1ccccc1	12.8%
CSc1nnc(-c2cc(-c3ccc(C)cc3)nc3ccccc23)o1	2.83%
O=C(Oc1cccc2c(O)cccc12)c1ccccc1	11.4%
CC1(C)CC(=O)c2cnc(NC(=O)CSC(=S)N3CCCCC3)nc2C1	-4.01%
COc1ccccc1/C=C(/NC(=O)c1ccc(Cl)cc1Cl)C(=O)O	16.5%
CCOc1ccc(C(=O)Nc2ccc3c(c2)OCCO3)cc1OC	-3.07%
COc1ccccc1C(=O)/C=C/c1ccc(N2CCCCC2)c([N+](=O)[O-])c1	4.86%
Cc1nnc(SCCn2c(Br)nc3c2c(=O)[nH]c(=O)n3C)s1	17.2%
Cl.O=C(NC(=S)N1CCN(Cc2ccccc2)CC1)c1ccco1	6.12%
COC(=O)c1ccc(NC(=O)C2CC(=O)N(c3cc(C)ccc3C)C2)cc1 (centres unmarked)	12.2%
Cc1ccc(C(=O)C2=C(O)C(=O)N(Cc3cccnc3)C2c2ccc(OC(C)C)cc2)o1 (centres unmarked)	13.6%
CC(=O)Nc1ccc(CN2CCN(CC(C)C)C(CCO)C2)cc1 (centres unmarked)	9.12%
Cc1ccc2nc(C3CCN(C(=O)c4ccco4)CC3)[nH]c2c1.Cl	-6.6%
COc1ccc(/C(C)=N/NS(=O)(=O)c2cc(C)ccc2C)c(OC)c1	11.6%

SMILES	hERG current change (%, negative = inhibition) at 1uM
O=C(c1ccc(-c2nc3ccccc3s2)o1)N1CCN(c2ccccc2O)CC1	12.4%
COc1ccccc1N1CCN(C(=O)Cn2nnc(-c3cccs3)n2)CC1	13%
Cc1nnc2ccc(-c3cccc(NC(=O)Cc4cccs4)c3)nn12	-0.401%
CCc1ccc2[nH]c(=O)c(CN(CCCN3CCOCC3)C(=O)Nc3ccccc3)cc2c1	-4.38%
COc1ccc(N2CCN(C(C)C(=O)N(C)Cc3ccccc3)CC2)cc1 (centres unmarked)	-10%
Cc1ccc(/C=C/C2=NN(Cc3ccccc3Cl)C(=O)CC2)cc1	8.51%
CCS(=O)(=O)Nc1cccc(-c2cc(-c3ccccc3)c3cc(C)ccc3n2)c1	12.8%
COc1ccc(C(=O)Nc2nc3ccc4nc(C)sc4c3s2)cc1	16.7%
COc1ccc(NC(=O)CN(C)C(=O)Cc2ccsc2)cc1	13%
O=C(Nc1ccc(F)cc1F)c1noc2c1CCC2	-2.34%
O=C(O)CC(c1cccc2ccccc12)N1Cc2ccccc2C1=O (centres unmarked)	11.4%
CCc1sc(C(=O)NNC(=O)CNC(=O)c2ccccc2F)cc1C	5.79%
COc1cc(NC(=O)c2nccn2C)cc(C(=O)Nc2cccc(C(F)(F)F)c2)c1	3.05%
CCc1c(C)sc2nc3c(C(=O)N4CCOCC4)cc(C(=O)c4ccccc4O)cn3c(=O)c12	2.15%
CC(C)(C)NS(=O)(=O)c1ccc(OCC(=O)Nc2ccc3c(c2)OCCO3)cc1	9.4%
Cc1oc2c(c1C(=O)NCc1cc(C(=O)O)co1)CCCC2	-11%
Cc1cccc(N=Cc2cc(Br)cc(Cl)c2O)c1	18.7%
O=C(NCc1ccncc1)C1CCCN(S(=O)(=O)Cc2ccccc2)C1 (centres unmarked)	9.39%
CN(C)C(CNC(=S)Nc1cccc(Cl)c1)c1cccnc1 (centres unmarked)	11%
Cc1c(Cl)cccc1NC(=O)COC(=O)c1ccc(CN2CCCC2=O)cc1	15.6%
O=C(O)c1cccc(NS(=O)(=O)c2ccc3c(c2)OCCCO3)c1	15.5%
CSc1ccccc1OCc1cc(C(=O)NC(C)c2cnn(C)c2)no1 (centres unmarked)	5.57%
Cc1c(Cl)cccc1NC(=O)C1Cc2ccccc2CN1C(=O)c1ccccc1 (centres unmarked)	9.61%

SMILES	hERG current change (%, negative = inhibition) at 1uM
O=C(NCCc1ccccc1)c1ccc2c(c1)N(Cc1ccccc1)CCS2	7.91%
Clc1ccc(-c2nc(Cc3ccccc3)no2)cc1	9.81%
COC(=O)c1c(NC(=O)c2c(Cl)cnn2C)sc(C)c1C	14.9%
CN1CCN(CC(=O)Nc2ccc(Cl)cc2C(=O)c2ccccc2)CC1	-83.3%
Cc1csc(SCC(=O)Nc2nnc(C)s2)n1	15.4%
CC(C)c1ccccc1NS(C)(=O)=O	16.9%
O=C(CCC(=O)c1cccs1)NCc1ccc(F)cc1	3.77%
COc1ccc(/C=C/C(=O)NCCCN2CCOCC2)cc1	4.07%
COc1ccccc1CNC(=O)Cn1c(=O)c2cccn2c2cccnc21	12.3%
CC(=O)NCc1ccc(-c2csc(NC(=O)CCCc3nc4ccccc4c(=O)[nH]3)n2)cc1	4.39%
O=C(C1CC1)N1CCC(C(O)(c2ccccc2)c2ccccc2)CC1	3.38%
Cc1ccc(-c2nnc(-c3cc(C)on3)o2)cc1	18.4%
COc1ccc(OC)c(S(=O)(=O)N2CCN(Cc3ccccc3)CC2)c1	15%
Cc1ccc(Cl)cc1N1CCN(C(=O)Cc2cn(C)c3ccccc23)CC1	13.8%
CC1CCCN(C(=O)CCS(=O)(=O)c2ccc3c(c2)NC(=O)C(C)S3)C1 (centres unmarked)	11.1%
CC1(C)Cc2c(c(=S)nc(-c3ccccc3)n2CCCN2CCOCC2)CO1	9.6%
O=C(CCc1n[nH]c(=O)[nH]c1=O)Nc1cccc([N+](=O)[O-])c1	16.9%
O=S(=O)(Nc1cccc(S(=O)(=O)N2CCCCCC2)c1)c1ccccc1	6.69%
Cc1ccc(CNC(=O)C(=O)NCC2OCCN2C(=O)c2cccs2)cc1 (centres unmarked)	2.77%
Cc1ccc(NC(=O)CN(C)C(=O)c2cccc(S(=O)(=O)N3CCCC3)c2)cc1	11.2%
Cn1c(=O)oc2cc(S(=O)(=O)Nc3ccc(O)cc3)ccc21	14.7%
Cc1c(C(=O)NC(Cc2ccccc2)c2nc3ccccc3[nH]2)cccc1[N+](=O)[O-] (centres unmarked)	8.01%
CCCN1C(=O)C2(/C(=C(\O)c3ccc4c(c3)OCCO4)C(=O)C(=O)N2CCCOC)c2ccccc21 (centres unmarked)	-3.16%

SMILES	hERG current change (%, negative = inhibition) at 1uM
Cc1ccc(SCCN2CCN(CCc3ccccc3)CCC2=O)cc1	-39.3%
CC(=O)c1ccc(NC(=O)NC2CCCCCCC2)cc1	10.8%
Cc1ccccc1-n1c(SCC(=O)NCc2cccs2)nc2ccccc2c1=O	3.82%
COc1cccc(-c2nc(CS(=O)CC(=O)N3CCC4(CC3)OCCO4)c(C)o2)c1 (centres unmarked)	7.84%
Fc1ccccc1N1CCN(CC2CCCCC2)CC1	16.2%
CC(C)(C)C(=O)Nc1ccccc1C(=O)NCCCn1ccnc1	3.25%
COc1cc(/C=N/Nc2nc(Nc3ccccc3)nc(-n3nc(C)cc3C)n2)cc(OC)c1OC	-5.71%
C/C(N)=C(/C#N)C(=O)CSc1nnc(-c2ccc3c(c2)OCO3)o1	20.4%
COc1ccc(S(=O)(=O)NC(Cc2cnc[nH]2)C(=O)O)cc1 (centres unmarked)	20.4%
COc1ccc(C(=O)CN2CCN(S(=O)(=O)c3cccc([N+](=O)[O-])c3)CC2)cc1OC	3.44%
Cc1ccc(O)c(N=Nc2ccc(S(=O)(=O)N3CCOCC3)cc2)c1	14.2%
Cc1ccc(C(=O)COc2ccc3ccc(=O)oc3c2)cc1	43.3%
CNC(=O)c1ccc(S(=O)(=O)c2ccc(Cl)cc2)c(NC(C)=O)c1	17.5%
COCCNC(=O)NC(=O)COC(=O)c1ccc2[nH]c3c(c2c1)CCCC3	6.92%
COc1ccc(OC)c(C2=NO[C@@H]3C(=O)N(c4cc(Cl)ccc4OC)C(=O)[C@H]23)c1	4.33%
CCc1ccc(Oc2nc([N+](=O)[O-])nn2C)cc1	7.02%
O=C(NCC1CCCO1)C1CCN(S(=O)(=O)c2ccccc2)CC1 (centres unmarked)	10.1%
CCCCn1c(N)c(N(CCC(C)C)C(=O)c2ccc([N+](=O)[O-])s2)c(=O)[nH]c1=O	-4.63%
Cc1sc2ncnc(OCC(=O)NCC3CCCO3)c2c1C (centres unmarked)	15.2%
CCCCCc1nnc(NC(=O)c2cccc(S(=O)(=O)N3CCOCC3)c2)s1	3.59%

From PMC4336329 (PLoS ONE, 2015)
